In patent US20170183408A1 (AstraZeneca / MedImmune, published 2017):

Key:
[1] = target: T1, FcRn (UniProt P55899 part only; P61769 part only, limits assumed); experiment: BIAcore 3000 steady-state, FcRn amine-coupled to the chip, antibody flowed
T1 construct: Directly immobilised on the BIAcore chip by amine coupling; also called neonatal Fc receptor

[2] = target: T2, FcgammaRIIIa genotype variant 158V (UniProt P08637 part only); experiment: BIAcore 3000 steady-state, FcgammaRIIIa 158V captured on anti-histidine chip, antibody flowed
T2 construct: the tag is not described; also called Fc-gamma-RIIIa (variant 158V); FcgammaRIIIA 158V
T2 sequence (P08637 other isoform, or with tags, fused parts or gaps mutant): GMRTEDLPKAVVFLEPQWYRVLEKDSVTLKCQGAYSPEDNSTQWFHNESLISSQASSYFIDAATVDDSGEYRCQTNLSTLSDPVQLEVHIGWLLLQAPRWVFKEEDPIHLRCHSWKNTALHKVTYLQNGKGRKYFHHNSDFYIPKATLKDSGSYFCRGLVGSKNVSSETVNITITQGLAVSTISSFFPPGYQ

- Kd [1]: 33.1 nM
- binding result [2]: no binding
B1: anti-EGFR FlexiMab antibody in its mAb-Val format (all native interchain cysteines substituted by valine) (antibody)
light: DIQMTQSPSSLSASVGDRVTITCQASQDISNYLNWYQQKPGKAPKLLIYDASNLETGVPSRFSGSGSGTDFTFTISSLQPEDIATYFCQHFDHLPLAFGGGTKVEIKRTVAAPSVFIFPPSDEQLKSGTASVVCLLNNFYPREAKVQWKVDNALQSGNSQESVTEQDSKDSTYSLSSTLTLSKADYEKHKVYACEVTHQGLSSPVTKSFNRGEV
heavy: QVQLQESGPGLVKPSETLSLTCTVSGGSVSSGDYYWTWIRQSPGKGLEWIGHIYYSGNTNYNPSLKSRLTISIDTSKTQFSLKLSSVTAADTAIYYCVRDRVTGAFDIWGQGTMVTVSSASTKGPSVFPLAPSSKSTSGGTAALGCLVKDYFPEPVTVSWNSGALTSGVHTFPAVLQSSGLYSLSSVVTVPSSSLGTQTYICNVNHKPSNTKVDKRV[omitted - human IgG1 Fc with C220V C226V C229V (EU numbers)]
modifications: threonine at position 225 (EU) modified post-translationally by a potential O-glycosylation
notes: Human IgG1 kappa without interchain disulphide bonds, held together non-covalently; expressed in HEK293F cells; also called anti-EGFR (mAb-Val format); anti-EGFR FlexiMab antibody variant
